pKi: −log10 of the molar value.
Biological target: Recombinant heterodimeric HCV NS3/NS4A protease (strain 1a) (Hepatitis C virus genotype 1a, UniProt P27958)
Test: Spectrophotometric assay for HCV protease inhibitory activity
Assay type: biochemical
Conditions: HCV serine protease inhibitory activity ranges; read-out: Ki* Range

Row | SMILES | pKi
1 | CCN1CC[C@@H](C2(NC(=O)N[C@H](C(=O)N3C[C@H]4[C@@H]([C@H]3C(=O)N[C@@H](CCC3CC3)C(=O)C(=O)NC3CC3)C4(C)C)C(C)(C)C)CCCCC2)S1(=O)=O [compound 1208] | > 7.12
2 | CCCC[C@H](NC(=O)[C@@H]1[C@@H]2[C@H](CN1C(=O)[C@@H](NC(=O)NC1(CS(=O)(=O)N(C(C)C)C3CC3)CCCCC1)C(C)(C)C)C2(C)C)C(=O)C(=O)NC1CC1 [compound 1329] | > 7.12
3 | CCC[C@H](NC(=O)[C@@H]1[C@@H]2[C@H](CN1C(=O)[C@@H](NC(=O)NC1(CS(=O)(=O)N(C)CC)CCCCC1)C1(C)CCCCC1)C2(C)C)C(=O)C(=O)NC1CC1 [compound 1292] | > 7.12
4 | CC(C)N(C1CC1)S(=O)(=O)CC1(NC(=O)N[C@H](C(=O)N2C[C@H]3[C@@H]([C@H]2C(=O)N[C@@H](CC2CC2)C(=O)C(=O)NC2CC2)C3(C)C)C(C)(C)C)CCCCC1 [compound 1332] | > 7.12
5 | CCCC[C@H](NC(=O)[C@@H]1[C@@H]2[C@H](CN1C(=O)[C@@H](NC(=O)NC1(CS(=O)(=O)N(C)CC(F)(F)F)CCCCC1)C1(C)CCCCC1)C2(C)C)C(=O)C(=O)NC1CC1 [compound 1319] | > 7.12
6 | CC(C)(C)[C@H](NC(=O)NC1([C@H]2CCN(C3CC3)S2(=O)=O)CCCCC1)C(=O)N1C[C@H]2[C@@H]([C@H]1C(=O)N[C@@H](CCC1CC1)C(=O)C(=O)NC1CC1)C2(C)C [compound 1215] | > 7.12
7 | CCC[C@H](NC(=O)[C@@H]1[C@@H]2[C@H](CN1C(=O)[C@@H](NC(=O)NC1(CS(=O)(=O)N(CC)CC)CCCCC1)C1CCCCC1)C2(C)C)C(=O)C(=O)NC1CC1 [compound 1335] | > 7.12
8 | CCCC[C@H](NC(=O)[C@@H]1[C@@H]2[C@H](CN1C(=O)[C@@H](NC(=O)NC1(CS(=O)(=O)N(C)OC)CCCCC1)C1(C)CCCCC1)C2(C)C)C(=O)C(=O)NC1CC1 [compound 1231] | > 7.12
9 | CCN(C)S(=O)(=O)CC1(NC(=O)N[C@H](C(=O)N2C[C@H]3[C@@H]([C@H]2C(=O)N[C@@H](CC2CC2)C(=O)C(=O)NC2CC2)C3(C)C)C2(C)CCCCC2)CCCCC1 [compound 1293] | > 7.12
10 | CCC[C@H](NC(=O)[C@@H]1[C@@H]2[C@H](CN1C(=O)[C@@H](NC(=O)NC1([C@H](C)S(=O)(=O)N(C)C)CCCCC1)C1(C)CCCCC1)C2(C)C)C(=O)C(=O)NC1CC1 [compound 1413] | > 7.12
11 | CCC[C@H](NC(=O)[C@@H]1[C@@H]2[C@H](CN1C(=O)[C@@H](NC(=O)NC1(CS(=O)(=O)N(C)C(C)(C)CF)CCCCC1)C(C)(C)C)C2(C)C)C(=O)C(=O)NC1CC1 [compound 1366] | > 7.12
12 | CN1CC[C@H](C2(NC(=O)N[C@H](C(=O)N3C[C@H]4[C@@H]([C@H]3C(=O)N[C@@H](CCC3CC3)C(=O)C(=O)NC3CC3)C4(C)C)C(C)(C)C)CCCCC2)S1(=O)=O [compound 1203] | > 7.12
13 | CN(C1CCC1)S(=O)(=O)CC1(NC(=O)N[C@H](C(=O)N2C[C@H]3[C@@H]([C@H]2C(=O)N[C@@H](CC2CC2)C(=O)C(=O)NC2CC2)C3(C)C)C2(C)CCCCC2)CCCCC1 [compound 1389] | > 7.12
14 | CCN(C1CC1)S(=O)(=O)CC1(NC(=O)N[C@H](C(=O)N2C[C@H]3[C@@H]([C@H]2C(=O)N[C@@H](CCC2CC2)C(=O)C(=O)NC2CC2)C3(C)C)C2(C)CCCCC2)CCCCC1 [compound 1360] | > 7.12
15 | CON(C)S(=O)(=O)CC1(NC(=O)N[C@H](C(=O)N2C[C@H]3[C@@H]([C@H]2C(=O)N[C@@H](CC2CC2)C(=O)C(=O)NC2CC2)C3(C)C)C(C)(C)C)CCCCC1 [compound 1228] | > 7.12
16 | CCN(C(C)C)S(=O)(=O)CC1(NC(=O)N[C@H](C(=O)N2C[C@H]3[C@@H]([C@H]2C(=O)N[C@@H](CC2CC2)C(=O)C(=O)NC2CC2)C3(C)C)C2(C)CCCCC2)CCCCC1 [compound 1306] | > 7.12

Row | SMILES | pKi
17 | CCC[C@H](NC(=O)[C@@H]1[C@@H]2[C@H](CN1C(=O)[C@@H](NC(=O)NC1([C@@H](C)S(=O)(=O)N(C)C3CC3)CCCCC1)C(C)(C)C)C2(C)C)C(=O)C(=O)NC1CC1 [compound 1417] | > 7.12
18 | CCCC[C@H](NC(=O)[C@@H]1[C@@H]2[C@H](CN1C(=O)[C@@H](NC(=O)NC1(CS(=O)(=O)N(C)C)CCCCC1)C1(C)CCCCC1)C2(C)C)C(=O)C(=O)NC1CC1 [compound 1236] | > 7.12
19 | CN(C(C)(C)CF)S(=O)(=O)CC1(NC(=O)N[C@H](C(=O)N2C[C@H]3[C@@H]([C@H]2C(=O)N[C@@H](CC2CC2)C(=O)C(=O)NC2CC2)C3(C)C)C(C)(C)C)CCCCC1 [compound 1367] | > 7.12
20 | CC(C)N(C(C)C)S(=O)(=O)CC1(NC(=O)N[C@H](C(=O)N2C[C@H]3[C@@H]([C@H]2C(=O)N[C@@H](CCC2CC2)C(=O)C(=O)NC2CC2)C3(C)C)C(C)(C)C)CCCCC1 [compound 1344] | > 7.12
21 | C[C@H](C1CC1)N(C)S(=O)(=O)CC1(NC(=O)N[C@H](C(=O)N2C[C@H]3[C@@H]([C@H]2C(=O)N[C@@H](CCC2CC2)C(=O)C(=O)NC2CC2)C3(C)C)C(C)(C)C)CCCCC1 [compound 1295] | > 7.12
22 | CCC[C@H](NC(=O)[C@@H]1[C@@H]2[C@H](CN1C(=O)[C@@H](NC(=O)NC1(CS(=O)(=O)N(CC)C3CC3)CCCCC1)C(C)(C)C)C2(C)C)C(=O)C(=O)NC1CC1 [compound 1352] | > 7.12
23 | CCC[C@@H](NC(=O)[C@@H]1[C@@H]2[C@H](CN1C(=O)[C@@H](NC(=O)NC1(CS(=O)(=O)N(C)c3ccccn3)CCCCC1)C(C)(C)C)C2(C)C)C(=O)C(=O)NC1CC1 [compound 1393] | > 7.12
24 | CCCC[C@H](NC(=O)[C@@H]1[C@@H]2[C@H](CN1C(=O)[C@@H](NC(=O)NC1(CS(=O)(=O)N(C(C)C)C3CC3)CCCCC1)C1(C)CCCCC1)C2(C)C)C(=O)C(=O)NC1CC1 [compound 1375] | > 7.12
25 | CCN(CC)S(=O)(=O)CC1(NC(=O)N[C@H](C(=O)N2C[C@H]3[C@@H]([C@H]2C(=O)N[C@@H](CCC2CC2)C(=O)C(=O)NC2CC2)C3(C)C)C(C)(C)C)CCCCC1 [compound 1257] | > 7.12
26 | CCC[C@H](NC(=O)[C@@H]1[C@@H]2[C@H](CN1C(=O)[C@@H](NC(=O)NC1(CS(=O)(=O)N(C)CC(F)(F)F)CCCCC1)C1(C)CCCCC1)C2(C)C)C(=O)C(=O)NC1CC1 [compound 1322] | > 7.12
27 | CCC[C@H](NC(=O)[C@@H]1[C@@H]2[C@H](CN1C(=O)[C@@H](NC(=O)NC1(CS(=O)(=O)N(C)C(C)(C)C3CC3)CCCCC1)C(C)(C)C)C2(C)C)C(=O)C(=O)NC1CC1 [compound 1309] | > 7.12
28 | C[C@@H](C1(NC(=O)N[C@H](C(=O)N2C[C@H]3[C@@H]([C@H]2C(=O)N[C@@H](CC2CC2)C(=O)C(=O)NC2CC2)C3(C)C)C(C)(C)C)CCCCC1)S(=O)(=O)N(C)C1CC1 [compound 1422] | > 7.12
29 | CCN(CC)S(=O)(=O)CC1(NC(=O)N[C@H](C(=O)N2C[C@H]3[C@@H]([C@H]2C(=O)N[C@@H](CC2CC2)C(=O)C(=O)NC2CC2)C3(C)C)C2(C)CCCCC2)CCCCC1 [compound 1267] | > 7.12
30 | CCN(C)S(=O)(=O)CC1(NC(=O)N[C@H](C(=O)N2C[C@H]3[C@@H]([C@H]2C(=O)N[C@@H](CC2CC2)C(=O)C(=O)NC2CC2)C3(C)C)C(C)(C)C)CCCCC1 [compound 1285] | > 7.12
31 | CCN(C)S(=O)(=O)CC1(NC(=O)N[C@H](C(=O)N2C[C@H]3[C@@H]([C@H]2C(=O)N[C@@H](CCC2CC2)C(=O)C(=O)NC2CC2)C3(C)C)C2(C)CCCCC2)CCCCC1 [compound 1291] | > 7.12

Source: US7816326B2, “Sulfur compounds as inhibitors of hepatitis C virus NS3 serine protease” (Schering Corporation, priority 2004, dated 2010)
